# About 6,000 (1.7%) of roughly 360,000 compounds were called active. Inconclusive results, whose numbers are uncertain, are shown with a selection of clear calls. Calls follow the shape of the dose curve; as a rule, active = well fitted cell-killing curve with a large enough effect; inconclusive = small, poorly fitted or top-dose-only effect, or effect the other way; inactive = flat fitted curve, though single readings scatter. No potency is given beside an inconclusive call; the fits are too rough.
# Test: qHTS for induction of synthetic lethality in tumor cells producing 2HG: qHTS for the HT-1080-NT fibrosarcoma cell line;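 also: NT is the 2HG producing partner of a matched IDH1 knockdown line; nearly all actives have a fitted effect of over 55% in size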;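 as to activity, negative = less viability: 0% = DMSO-treated cells and -100% = media-only wells without cells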
# Settings: HT-1080-NT fibrosarcoma viability, CellTiter-Glo ATP luminescence, 48 h; activity, negative = less viability: at 46.1 µM (top of the series) unless noted
# How it was run: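 A 48-hour cytotoxicity screen used HT-1080-NT cells plated 2 hours before compound delivery. ATP-based CellTiter-Glo luminescence measured viability, normalized to DMSO and no-cell controls.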
# Potency is read from the fitted curve at half-maximal effect; tags tell the direction and shape of the fitted curve.
SMILES,Potency,"activity, negative = less viability"
CN1CCN(C(=O)CCN2C(=O)/C(=C\c3ccc(Cl)cc3Cl)SC2=S)CC1,"inconclusive [cytotoxic, partial curve]",
COc1ccc(-c2ccc3[nH]c4c(c3c2)CCN2C(=O)[C@@H]([C@H](C)O)[C@@H](N(C)C(=O)Nc3ccccc3)C[C@@H]42)cc1,active: 23.1 µM,
CC1Cc2ccccc2N1S(=O)(=O)c1cccc(C(=O)Nc2cccnc2)c1 (stereo not drawn),"inconclusive [cytotoxic, single point]",
COc1cc(-c2cc(C(=O)Nc3nc4ccccc4s3)c3ccccc3n2)cc(OC)c1OC,,inactive: -12.2%
c1ccc(CCNc2nc3ccccc3s2)cc1,"inconclusive [cytotoxic, single point]",
Cc1ccc2c(c1)c(/C=C/c1cc[n+](C)cc1)c(C)n2C,"inconclusive [cytotoxic, partial curve]",
Cc1ccc(S(=O)(=O)N2CCCCC2)cc1NS(=O)(=O)c1cccc(C(=O)O)c1,,inactive: 10.6%
COc1ccc2c(CN3CCN(c4ccccc4F)CC3)cc(=O)oc2c1,,inactive: 29%
NS(=O)(=O)c1ccc(NC(=S)NNC(=O)c2ccc(Br)o2)cc1,,inactive: 20.3%
Cc1cc(C(F)(F)F)nc(-n2cc(-c3ccccc3)nn2)n1,"inconclusive [rising, partial curve]",
COC(=O)c1ccccc1NC(=O)CNC(=O)c1ccc(OC)cc1,"inconclusive [rising, partial curve]",
Oc1ccccc1CNc1cccc2cccnc12,"inconclusive [cytotoxic, single point]",
CCCCS(=O)(=O)/C=C\C=C/S(=O)(=O)CCCC,active: 6.51 µM,
Cc1ccc(C2=Nc3ccccc3N=C(c3ccco3)C2)c(O)c1,,inactive: 3.92%
CCOc1ccc(Cl)cc1-c1cc(C(=O)NCCOC)[nH]n1,,inactive: 7.73%
CCCNC(=O)NC(=O)COC(=O)/C=C/c1cc(Br)ccc1F,"inconclusive [rising, single point]",
CCn1c2ccccc2c2cc(NC(=O)CSc3nnc(-c4ccc(OC)cc4)n3N)ccc21,"inconclusive [cytotoxic, single point]",
O=C(CN1CCN(CC(=O)Nc2ccccc2Cl)CC1)Nc1ccc(F)c(F)c1,,inactive: -4.63%
Cc1cc(=O)[nH]c2nnnn12,"inconclusive [rising, full curve, poor fit]",
O=C(NCc1ccc(Cl)cc1)C1CCC(=O)N(C2CC2)C1 (stereo not drawn),,inactive: 2.83%
COc1ccccc1Nc1nc(NCCCN(C)C)nc(N)c1[N+](=O)[O-],"inconclusive [cytotoxic, single point]",
CC(=O)c1cccc(N=Cc2c(O)ccc3ccccc23)c1,"inconclusive [cytotoxic, single point]",
CN(C)c1ccc(-c2ccnc3c2CC(C)(C(=O)NCc2cccc(Cl)c2)O3)cc1 (stereo not drawn),"inconclusive [cytotoxic, single point]",
CCOc1[nH]n(-c2ccccc2)c(=O)c1C=Nc1ccccc1,"inconclusive [cytotoxic, single point]",

SMILES,Potency,"activity, negative = less viability"
CC(C)c1ccc(NC(=O)C2(C)Cc3c(-c4cccc(C(N)=O)c4)ccnc3O2)cc1 (stereo not drawn),"inconclusive [cytotoxic, single point]",
O=C(NCCc1ccccc1)c1ccc(Cl)nc1,,inactive: 19.7%
CSc1ncc(-c2ccccc2)cn1,"inconclusive [rising, partial curve]",
COc1ccc(-c2oc3ncn(CCN4CCOCC4)c(=N)c3c2-c2ccc(OC)cc2)cc1,"inconclusive [cytotoxic, single point]",
Cc1ccc(C)c(Nc2nc(N)c3ccccc3n2)c1,,inactive: -10.4%
CC(C)Nc1nc(NC(C)C)nc(C(N)=O)n1,,inactive: 1.34%
Cc1ccc(S(=O)(=O)N2CC3(O)CN(C(=O)OC(C)C)N(C(=O)OC(C)C)CC3(OC(=O)NCC3CCCCC3)C2)cc1 (stereo not drawn),"inconclusive [cytotoxic, single point]",
CC(C)c1ccc2nc(N)sc2c1,,inactive: -7.55%
Cc1[nH]n(-c2ccc(Cl)cc2)c(=O)c1/C=N/n1c(C)nc2ccccc2c1=O,active: 23.1 µM,
O=C1[C@@H]2Cc3c([nH]c4ccccc34)C(c3ccccc3)N2C(=O)CN1C1CCN(Cc2ccccc2)CC1 (stereo partly drawn),"inconclusive [cytotoxic, single point]",
CN1CCOCCOc2ccccc2OCCOCC1,,inactive: 0.211%
Oc1ccc(C2=NNC(=NCc3ccc4c(c3)OCO4)SC2)c(O)c1,active: 20.6 µM,
COc1cccc(/C=C/C(=O)c2ccc(C)c([N+](=O)[O-])c2)c1,"inconclusive [cytotoxic, single point]",
O=C(Nc1ccccn1)c1cc2ccccc2cc1O,"inconclusive [cytotoxic, single point]",
CCCCN1CC(COCc2ccccc2)Oc2cccc(Oc3cc(C)c(C)c(C)c3)c2S1(=O)=O (stereo not drawn),,inactive: -7.73%
N#CC1=C(N)C2=CCCC[C@H]2[C@H](c2ccc(Br)cc2)C1(C#N)C#N,,inactive: -4.39%
CCN(c1ccc(NC(=O)COC(=O)CCc2nc3ccccc3n2-c2ccccc2)cc1)C(C)C,"inconclusive [cytotoxic, single point]",
COc1cc(C(=O)N/N=C/c2ccsc2C)cc(OC)c1OC,active: 0.92 µM,
COc1ccccc1N(CC1CO1)S(=O)(=O)c1ccccc1 (stereo not drawn),,inactive: -11.8%
O=C(NNc1cc(C(F)(F)F)nc2ccccc12)Nc1cccc(Cl)c1,"inconclusive [cytotoxic, partial curve]",
CCCCCc1c(CC)ncn1CCc1ccccc1OC,active: 25.9 µM,
OC(CN1CC=C(/C=C/c2ccc(Br)cc2)CC1)c1ccccc1 (stereo not drawn),"inconclusive [cytotoxic, single point]",
OC(Cc1cccc(Br)c1)c1ncc(-c2cccc(C(F)(F)F)c2)[nH]1 (stereo not drawn),"inconclusive [cytotoxic, single point]",
CCCCn1cnc2c(SCc3ccc(Cl)cc3)nc(N)nc21,"inconclusive [cytotoxic, partial curve, poor fit]",
